Experimental data published in the supplement of paper PMC4604168 (melanoma cell lines).
The other results are listed elsewhere or left out. Most values come without repeats; read them as rough.

Key:
Assay in all cases: cell count relative to DMSO control; melanoma cells; higher = more viable cells
Conditions in all cases: library dose: low library concentration; 72 h
WM115 = system: WM115
WM1716 = system: WM1716
WM1745 = system: WM1745
WM3526 = system: WM3526
WM3619 = system: WM3619
WM451Lu = system: WM451Lu
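Further: cell number obtained by counting DAPI-stained nuclei in high-throughput microscope images with image analysis software, screen run in 1,536-well plates.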

Compound	cell count (WM115)	cell count (WM1716)	cell count (WM1745)	cell count (WM3526)	cell count (WM3619)	cell count (WM451Lu)
C=CCNC1=C2C[C@@H](C)C[C@H](OC)[C@H](O)[C@@H](C)/C=C(\C)[C@H](OC(N)=O)[C@@H](OC)/C=C\C=C(/C)C(=O)NC(=CC1=O)C2=O [Tanespimycin] + NC(=O)Nc1cc(-c2cccc(F)c2)sc1C(=O)N[C@H]1CCCNC1 [AZD7762] (first compound 0.002 µM, partner dose 0.02 µM)	75%	100%	77%	97.6%	41.5%	85.6%
CN1CCN(c2ccc3nc(-c4c(N)c5c(F)cccc5[nH]c4=O)[nH]c3c2)CC1 [Dovitinib] + COc1cc(N2CCC(N3CCN(C)CC3)CC2)ccc1Nc1ncc(Cl)c(Nc2ccccc2S(=O)(=O)C(C)C)n1 [NVP-TAE684] (first compound 0.1 µM, partner dose 0.08 µM)	91%	111%	61.8%	84.5%	92.7%	80.9%
CN1CCN(c2ccc3nc(-c4c(N)c5c(F)cccc5[nH]c4=O)[nH]c3c2)CC1 [Dovitinib] + CC(C)CCN1c2nc(Nc3cc(F)c(O)c(F)c3)ncc2N(C)C(=O)C1C [BID1870] (first compound 0.1 µM, partner dose 0.2 µM)	82.7%	100%	81.4%	95.1%	102%	67%
CNC(=O)c1cc(Oc2ccc(NC(=O)Nc3ccc(Cl)c(C(F)(F)F)c3)cc2)ccn1 [sorafenib] + C=CCNC1=C2C[C@@H](C)C[C@H](OC)[C@H](O)[C@@H](C)/C=C(\C)[C@H](OC(N)=O)[C@@H](OC)/C=C\C=C(/C)C(=O)NC(=CC1=O)C2=O [Tanespimycin] (first compound 0.4 µM, partner dose 0.002 µM)	92.2%	97.8%	98.1%	90.3%	102%	84.1%
C=CCNC1=C2C[C@@H](C)C[C@H](OC)[C@H](O)[C@@H](C)/C=C(\C)[C@H](OC(N)=O)[C@@H](OC)/C=C\C=C(/C)C(=O)NC(=CC1=O)C2=O [Tanespimycin] + COc1ccc(COc2ccc(Cc3cnc(N)nc3N)cc2OC)cc1 [GW2580] (first compound 0.002 µM, partner dose 1 µM)	98.9%	111%	104%	115%	104%	103%
CNC(=O)c1cc(Oc2ccc(NC(=O)Nc3ccc(Cl)c(C(F)(F)F)c3)cc2)ccn1 [sorafenib] + COc1ccc(-c2ccc3c(N4CCOCC4)nc(N4C[C@@H](C)O[C@@H](C)C4)nc3n2)cc1CO [KU0063794] (first compound 0.4 µM, partner dose 0.02 µM)	92.7%	95.5%	90.2%	92%	96.9%	89.7%
C=CCNC1=C2C[C@@H](C)C[C@H](OC)[C@H](O)[C@@H](C)/C=C(\C)[C@H](OC(N)=O)[C@@H](OC)/C=C\C=C(/C)C(=O)NC(=CC1=O)C2=O [Tanespimycin] + COc1cc2c(Oc3ccc4[nH]c(C)cc4c3F)ncnc2cc1OCCCN1CCCC1 [cediranib] (first compound 0.002 µM, partner dose 0.4 µM)	90.8%	104%	1.23%	85.4%	107%	94.7%
CNC(=O)c1cc(Oc2ccc(NC(=O)Nc3ccc(Cl)c(C(F)(F)F)c3)cc2)ccn1 [sorafenib] + CC1(C)NC(=O)N(c2ccc([N+](=O)[O-])c(C(F)(F)F)c2)C1=O [nilutamide] (first compound 0.4 µM, partner dose 1 µM)	98.9%	104%	105%	86.1%	100%	101%
CNC(=O)c1cc(Oc2ccc(NC(=O)Nc3ccc(Cl)c(C(F)(F)F)c3)cc2)ccn1 [sorafenib] + NCC(=O)Nc1ccc(-n2nc(C(F)(F)F)cc2-c2ccc3c(ccc4ccccc43)c2)cc1 [OSU03012] (first compound 0.4 µM, partner dose 1 µM)	90.5%	93.6%	87.8%	52.3%	119%	56%
CN1CCN(c2ccc3nc(-c4c(N)c5c(F)cccc5[nH]c4=O)[nH]c3c2)CC1 [Dovitinib] + NC(=O)Nc1cc(-c2cccc(F)c2)sc1C(=O)N[C@H]1CCCNC1 [AZD7762] (first compound 0.1 µM, partner dose 0.02 µM)	94.4%	106%	91%	100%	76.6%	83%
CN1CCN(c2ccc3nc(-c4c(N)c5c(F)cccc5[nH]c4=O)[nH]c3c2)CC1 [Dovitinib] + COc1cc2c(Oc3ccc4[nH]c(C)cc4c3F)ncnc2cc1OCCCN1CCCC1 [cediranib] (first compound 0.1 µM, partner dose 0.4 µM)	94.6%	102%	75.9%	64.8%	109%	109%
C=CCNC1=C2C[C@@H](C)C[C@H](OC)[C@H](O)[C@@H](C)/C=C(\C)[C@H](OC(N)=O)[C@@H](OC)/C=C\C=C(/C)C(=O)NC(=CC1=O)C2=O [Tanespimycin] + OCc1c[nH]c2ccccc12 [Indole-3-carbinol] (first compound 0.002 µM, partner dose 0.8 µM)	91.1%	90.6%	86.8%	98.9%	93.1%	96.6%
CN1CCN(c2ccc3nc(-c4c(N)c5c(F)cccc5[nH]c4=O)[nH]c3c2)CC1 [Dovitinib] + O=C(O)c1ccc(-c2c[nH]c3ncc(-c4ccccc4)cc23)cc1C1CCCC1 [GSK650394] (first compound 0.1 µM, partner dose 0.16 µM)	102%	91.3%	70.8%	77.9%	98.7%	113%
CNC(=O)c1cc(Oc2ccc(NC(=O)Nc3ccc(Cl)c(C(F)(F)F)c3)cc2)ccn1 [sorafenib] + Nc1ccn([C@@H]2O[C@H](CO)[C@@H](O)C2(F)F)c(=O)n1 [gemcitabine] (first compound 0.4 µM, partner dose 0.0004 µM)	107%	105%	94.1%	98.6%	81%	114%
CN1CCN(c2ccc3nc(-c4c(N)c5c(F)cccc5[nH]c4=O)[nH]c3c2)CC1 [Dovitinib] + CO[C@H]1C[C@@H]2CC[C@@H](C)[C@@](O)(O2)C(=O)C(=O)N2CCCC[C@H]2C(=O)O[C@H]([C@H](C)C[C@@H]2CC[C@@H](OCCO)[C@H](OC)C2)CC(=O)[C@H](C)/C=C(\C)[C@@H](O)[C@@H](OC)C(=O)[C@H](C)C[C@H](C)/C=C/C=C/C=C/1C [everolimus] (first compound 0.1 µM, partner dose 0.02 µM)	65.2%	78.8%	74.8%	59.8%	80%	68.2%
C=CCNC1=C2C[C@@H](C)C[C@H](OC)[C@H](O)[C@@H](C)/C=C(\C)[C@H](OC(N)=O)[C@@H](OC)/C=C\C=C(/C)C(=O)NC(=CC1=O)C2=O [Tanespimycin] + O=C(CCCCCCC(=O)Nc1ccccc1)NO [vorinostat] (first compound 0.002 µM, partner dose 0.08 µM)	79.5%	107%	79.2%	87.6%	84.1%	90.3%
CNC(=O)c1cc(Oc2ccc(NC(=O)Nc3ccc(Cl)c(C(F)(F)F)c3)cc2)ccn1 [sorafenib] + COCC[n+]1c2c(n(Cc3cnccn3)c1C)C(=O)c1ccccc1C2=O [YM155] (first compound 0.4 µM, partner dose 0.0004 µM)	113%	95.6%	108%	117%	102%	86.4%
